Measured values reported in paper PMC4336329 (PLoS ONE, 2015).
Screen size: about 310,000 compounds; about 2,200 (0.71%) showed an effect of 50% or more. The effect is printed as a negative number. This is one part of the list.

target: human ether-à-go-go-related gene (hERG) potassium channel (human, UniProt Q12809); assay: primary screen, population patch clamp on CHO cells stably expressing hERG
Sequence (Q12809 whole entry, looked up): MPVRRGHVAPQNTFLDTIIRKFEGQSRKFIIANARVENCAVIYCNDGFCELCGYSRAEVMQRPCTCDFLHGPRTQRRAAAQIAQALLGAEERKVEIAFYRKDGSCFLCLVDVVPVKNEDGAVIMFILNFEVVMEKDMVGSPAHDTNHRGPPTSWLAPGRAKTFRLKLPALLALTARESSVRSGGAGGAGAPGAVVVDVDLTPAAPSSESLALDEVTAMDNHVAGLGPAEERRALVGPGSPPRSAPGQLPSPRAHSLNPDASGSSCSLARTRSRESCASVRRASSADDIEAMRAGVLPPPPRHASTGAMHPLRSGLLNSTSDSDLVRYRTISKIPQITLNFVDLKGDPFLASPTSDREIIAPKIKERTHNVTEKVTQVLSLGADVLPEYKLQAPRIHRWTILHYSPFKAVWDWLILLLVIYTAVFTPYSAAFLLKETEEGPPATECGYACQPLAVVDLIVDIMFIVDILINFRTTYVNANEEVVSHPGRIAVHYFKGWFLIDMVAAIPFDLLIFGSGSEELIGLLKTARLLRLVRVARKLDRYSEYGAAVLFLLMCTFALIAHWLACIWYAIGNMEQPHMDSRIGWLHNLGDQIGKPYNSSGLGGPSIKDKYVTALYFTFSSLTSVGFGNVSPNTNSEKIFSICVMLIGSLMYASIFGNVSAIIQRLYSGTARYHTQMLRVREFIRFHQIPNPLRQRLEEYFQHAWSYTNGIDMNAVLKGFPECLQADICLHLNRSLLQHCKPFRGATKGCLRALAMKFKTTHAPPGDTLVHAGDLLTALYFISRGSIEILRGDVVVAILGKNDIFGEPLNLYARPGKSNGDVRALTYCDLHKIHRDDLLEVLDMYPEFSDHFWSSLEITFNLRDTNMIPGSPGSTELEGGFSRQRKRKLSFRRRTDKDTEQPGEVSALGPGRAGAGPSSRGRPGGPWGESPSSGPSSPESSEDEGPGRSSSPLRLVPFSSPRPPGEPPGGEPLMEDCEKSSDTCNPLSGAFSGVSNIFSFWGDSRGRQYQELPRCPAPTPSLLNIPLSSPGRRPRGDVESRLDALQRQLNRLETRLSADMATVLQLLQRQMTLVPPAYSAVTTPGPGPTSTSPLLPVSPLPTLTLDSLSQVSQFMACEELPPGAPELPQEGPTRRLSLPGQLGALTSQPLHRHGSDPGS

SMILES	hERG current change (%, negative = inhibition) at 1uM
CCC(C)[C@H](NC(=O)OC(C)(C)C)C(=O)N/N=C/c1ccc2nccnc2c1 (stereo partly shown)	-6.23%
O=C(O)COc1c(-c2ccccc2)oc2ccccc2c1=O	8.93%
O=C(Nc1nccs1)C1CC2CCC1C2 (stereo not shown)	7.4%
Cc1cc(Br)ccc1NC(=O)CN(C)C(=O)CSCc1ccccc1	4.67%
O=C(Nc1nncs1)c1ccc(S(=O)(=O)c2ccccc2)cc1	7.42%
Cn1c(NCc2ccccc2)nc2c1c(=O)n(Cc1ccc(Br)cc1)c(=O)n2C	17.6%
CC(=O)N1CCCc2cc(S(=O)(=O)N(C)Cc3ccccc3)ccc21	3.69%
Cc1cc(-c2nn(-c3ccccc3F)cc2CN2CCC(O)CC2)c(C)s1	-0.852%
Cc1ccc(NC(=O)CSCC#N)cc1	9.95%
COCc1cc(OC(=O)N(C)C)nc2c1c(C)nn2C	6.29%
O=C(NCc1ccco1)C1CCN(c2nnc(-n3cccc3)s2)CC1	-19.9%
CCOc1ccccc1NC(=O)c1ccc2nccnc2c1	24.3%
C/C(=N\Nc1cccc([N+](=O)[O-])c1)c1cc(F)ccc1O	12.7%
Cc1ccc(-c2csc3ncn(-n4c(C)ccc4C)c(=O)c23)o1	6.71%
CCC(=O)c1cc(F)c(N2CCN(CC)CC2)cc1C	8.74%
Cc1ccc(C(=O)COC(=O)CCc2ccc(S(=O)(=O)N3CCCCC3)cc2)cc1	4.49%
CCNc1nc(N2CCOCC2)nc(N(c2ccccc2)c2ccccc2)n1	5.11%
COc1ccc(N2CCC(CNC(=O)Nc3ccc(C)c(C)c3)C2)cc1 (stereo not shown)	10.3%
CCCN(Cc1nnc(-c2ccccc2Cl)o1)C(=O)c1oc2ccccc2c1C	19.9%
Cc1ccc(C)c(N2CCN(C(=O)Cc3ccc(NC4=NC5CS(=O)(=O)CC5S4)cc3)CC2)c1 (stereo not shown)	7.15%
CCN(CC)S(=O)(=O)c1ccc(NS(=O)(=O)c2ccc(O)c([N+](=O)[O-])c2)cc1	7.67%
Cc1cc(C)c(S(=O)(=O)N2CCN(S(=O)(=O)N3CCCCCC3)CC2)c(C)c1	9.03%
CC(=O)Nc1cc(C(N)=O)c(Cl)cc1Cl	1.43%
COC(=O)C(C(=O)OC)C(C[N+](=O)[O-])c1ccc(OC)cc1 (stereo not shown)	0.246%
O=C(Nc1nc(-c2ccc(Cl)s2)cs1)c1cccs1	17.5%
Cc1ccccc1C1CC(c2ccccc2OC(F)F)Nc2ncnn21 (stereo not shown)	0.671%
CSc1ccccc1OCc1cc(C(=O)N(C)CCc2c(C)n[nH]c2C)no1	9.05%
Cc1onc(-c2c(Cl)cccc2Cl)c1C(=O)Nc1ccc2c(c1)OCCO2	11.5%

SMILES	hERG current change (%, negative = inhibition) at 1uM
Cc1ccc(S(=O)(=O)N/N=C\c2ccc3c(c2)OCO3)cc1C	-0.354%
O=C(c1ccncc1)N1c2ccccc2Sc2ccccc21	8.06%
Cc1cc(C(=O)OCCO)c(C#N)c(N)n1	21.1%
Cl.c1ccc(-c2cc(-c3ccncc3)nc3ccc4ccccc4c23)cc1	7.64%
Cc1ccn2cc(-c3ccc(NC(=O)c4ccco4)cc3)nc2c1	-5.16%
Cc1sc(NC(=O)Cn2c(=O)oc3ccccc32)nc1-c1ccc(Cl)cc1	15.7%
CC1CCC(NC(=O)C2c3ccccc3C(=O)N2CCCN2CCOCC2)CC1 (stereo not shown)	-0.483%
Cc1ccccc1COC(=O)c1cc([N+](=O)[O-])ccc1N1CCOCC1	3.4%
CC(Oc1cccc(Cl)c1)C(=O)N1CCN(c2ncccn2)CC1 (stereo not shown)	2.38%
O=C(NCC(=O)N1CCN(S(=O)(=O)c2ccccc2F)CC1)c1ccc2c(c1)OCO2	18.6%
O=C(CSc1ncn(-c2ccccc2)n1)Nc1ccc2c(c1)OCCO2	9.75%
O=C(CNC(=O)c1ccccc1F)NCCN1C(=O)S/C(=C\c2ccccc2Cl)C1=O	1.82%
Cc1ccc(-c2nc(CS(=O)(=O)CC(=O)N3CCOCC3)c(C)o2)cc1	19.1%
O=C(Cc1ccc2c(c1)OCCO2)N1CCN(S(=O)(=O)c2cccc(C(F)(F)F)c2)CC1	-11.8%
COc1ccc(OCC(=O)N/N=C/c2ccc(O[C@@H]3O[C@H](CO)[C@@H](O)[C@H](O)[C@H]3O)cc2)cc1	10.5%
Cc1c(OCC(=O)NCCCN2CCOCC2)ccc2c3c(c(=O)oc12)CCC3	19.2%
N#Cc1c(NC(=O)COC(=O)C2CC3C=CC2C3)oc(-c2ccccc2)c1-c1ccccc1 (stereo not shown)	12.5%
Cn1ccc(NC(=O)Nc2cccc([N+](=O)[O-])c2)n1	5.63%
COC(C(=O)Nc1ccnn1C1CCN(Cc2nccs2)CC1)c1ccccc1 (stereo not shown)	12.3%
COc1ccc(S(N)(=O)=O)cc1C(=O)NCC(C)(C)N1CCOCC1	8.54%
COc1ccc(C#Cc2c(-c3ccsc3)oc3ccc(-c4cc(OC)c(OC)c(OC)c4)cc23)cc1	-12.5%
O=C(Nc1ccc(F)cc1)c1cc(S(=O)(=O)N2CCCCC2)cs1	7.53%
Cc1cc(C)c(NC(=O)CSc2nncn2-c2cccnc2)c(C)c1	6.46%
NC(=[NH2+])SCc1[nH+]cccc1O.[Cl-]	12.1%
CCOc1cc(/C=C2/N=C(c3ccc4c(c3)OCO4)OC2=O)ccc1OC(C)=O	7.12%
Cc1ccc(S(=O)(=O)N2CCCC2)cc1C(=O)N1CCC(C)CC1	7.56%
O=C(CC(c1ccco1)C1CCCCC1=O)c1ccco1 (stereo not shown)	10%
